Measurements reported in the supplement of paper PMC12067230.
The data scatter; read single values as rough.

B1: library; a variant is named by its letters at X, in order (parent)
chain: EASNCFAIRHFENKFAVETLICXXXXXXXXX
B2: library; a variant is named by its letters at X, in order (parent)
chain: EASNCFAIRHFENKFAVETLICXXXXXXXX

Variants of: B1
Test: amyloid nucleation score relative to library mode (yeast Sup35 reporter selection) (log enrichment difference); higher = more amyloid nucleation; sequences are the first 22 residues of the Bri2 peptide extended by up to 12 random residues
Conditions: random library (experiment): 1;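 active = nucleation score significantly above 0 at FDR 0.05; inactive = not significantly above 0 or absent from output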
Experimental: (§1)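 Random C-terminal extensions of the 22-aa Bri2 peptide by 12 NNK codons; premature stops give shorter extensions. Peptides were fused to the Sup35 nucleation domain in S. cerevisiae [psi-pin-] and selected on -ADE-URA plates for 7 d at 30 °C. The nucleation score is log(output/input), centred to the mode of each of 3 independent libraries (1 input, 3 technical output replicates), with duplicates merged. Sequences absent from the output ('random_non_nuc') were imputed with the library mode value, so they are given as censored (<). Nucleators are scores significantly >0 at FDR 0.05.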
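Also: [psi-pin-] Saccharomyces cerevisiae expressing SupN fusions, induced by 100 µM Cu2SO4, selected 7 d at 30 °C without adenine and uracil, scored by deep sequencing of output versus input.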

| Variant | amyloid nucleation score |
| --- | --- |
| YGPGMSSGW | 5.32 |
| WSYRLVTAA | inactive |
| LLPWLPFCS | 5.08 |
| LGTSNTTVG | 4.69 |
| HMTCNGFWG | 5.14 |
| CHLVVGLAE | 5.92 |
| PLDPFTVRY | inactive |
| CRWGKVSLE | 0.683 |
| LSGMSGELP | inactive |
| YTHVSGLCY | inactive |
| DVLRVALFV | inactive |
| LWRGGFDAY | inactive |
| RSLLCNLMG | 3.17 |
| KGSGGLMFG | -0.372 |
| LAMYDGSLG | inactive |
| NASLWAQEQ | 1.26 |
| EVAGVVRLG | 1.54 |
| KESVFRGIE | inactive |
| MGLPLCHVL | 3.26 |
| VTLLEPTPL | inactive |
| DESLLARCL | inactive |
| RSAPPGWLR | 2.4 |
| YGSAHCDKS | 3.52 |
| FCVCYIPNR | 2.18 |

| Variant | amyloid nucleation score |
| --- | --- |
| EKCGGCRTL | inactive |
| WCLSTQFVV | inactive |
| GNSVSRRDL | 0.703 |
| KVRYQRFLV | inactive |
| GRYQVRVMW | 3.12 |
| VRRLRVLGE | inactive |
| FIRRVHIVR | 5.37 |
| VNVIPRVVV | inactive |
| LVKVYPWCM | inactive |
| VFYLTGYAR | inactive |
| RSCMEGYSG | inactive |
| HGLGAVVCA | inactive |
| DLCLRWRKC | inactive |
| RCFMRICAG | inactive |
| LLSLCYNCF | -0.187 |
| MSWPIMWYM | inactive |
| DREVSRVRG | -0.627 |
| GICGRSLLS | 5.5 |
| DQLEDIIQG | inactive |
| RSRMCDARP | -0.00976 |
| VTCIMFNRC | 4.82 |
| FDTTEESPR | 0.848 |
| FTRCGLSGR | 2.41 |
| WNGQWYGTR | 5.4 |

| Variant | amyloid nucleation score |
| --- | --- |
| RNKPTSGTT | inactive |
| HCLTSNACL | 6.39 |
| DHVADWLSC | 5.37 |
| VVPMELGCR | inactive |
| PGMAARRVR | -0.288 |
| HTVPRASPG | -0.171 |
| EDLGCQEMP | inactive |
| DMDDSEELT | inactive |
| CRSSDAEVQ | 2.94 |
| GIHMVFDEA | 4.66 |
| GRKAMTTDS | inactive |
| VGSVSSRVE | inactive |
| AGPVLTTAP | inactive |
| RGQMVPSSL | inactive |
| RNGHFDVYP | inactive |
| MPRVRSIVV | 0.498 |
| FVGMVWVYR | -0.227 |
| AIMSQVHRY | 4.65 |
| IGYRVGHTL | inactive |
| FTCCGWLVG | 8.39 |
| DGLGFTAVY | -0.0846 |
| LNRRVVQFT | inactive |
| RRIRLRFSS | inactive |
| VSDGVRGNG | inactive |

| Variant | amyloid nucleation score |
| --- | --- |
| FVVFSKLVK | inactive |
| LCPRAREHG | 8.6 |
| GVLLGGDVR | 3.75 |
| NIRSDHAFG | 6.6 |
| GVLCFDSGC | 7.29 |
| QWMYYVPFL | 0.165 |
| WLGIRRRMS | inactive |
| GRGQIREEV | inactive |
| WVAEGHPFK | inactive |
| VLCEHRSMI | 2.51 |
| GWYSVSHEG | 2.44 |
| YPCRCKGKT | 8.92 |
| GFVVRNGTI | 7.81 |
| ESVRVSGTA | inactive |
| IYMMIRTYA | inactive |
| FSQVPPGLC | 3.05 |
| VDGLVRCDV | -0.0194 |
| KCAFMLGSY | inactive |
| CGGMALGPA | 8.36 |
| GVHLSRGNL | inactive |
| MWRRNFCWP | inactive |
| PEMSSTAPS | 0.855 |
| RCSWVSERG | -0.171 |
| VCNAYPAVV | 4.62 |

| Variant | amyloid nucleation score |
| --- | --- |
| MCTPVSLWV | 4.52 |
| YGSRMKLAG | inactive |
| WVVITRGSG | inactive |
| VVLDRFAVI | 6.46 |
| ISYSSTYQV | -0.0479 |
| GLTMRNPLA | inactive |
| MRWAGFLVS | inactive |
| LNTTNPLGR | -0.00976 |
| RRGPLGGEG | inactive |
| VSEHEEVRW | inactive |
| VSGVSWTLT | inactive |
| YRIEALSGG | inactive |
| YNKHRYLSG | inactive |
| PGYGRRSGE | inactive |
| DEVIGLTCI | inactive |
| DSTYPHGNV | inactive |
| CVTWLVSAH | 1.38 |
| TGAPQKGLC | inactive |
| LCTNGGHKT | 6.66 |
| ETRTVIDGK | 0.636 |
| WTSQVLKYK | inactive |
| VWCSNRSGS | 8.79 |
| WLVEDQVAQ | inactive |
| DDSVPFMLY | 1.56 |

| Variant | amyloid nucleation score |
| --- | --- |
| RGEWSKLLC | inactive |
| LSYQVYVPF | 2.22 |
| GLDGLSLLS | inactive |
| GEKKTYYWM | -0.0479 |
| CLGSYAAKA | 6.45 |
| VSVVYSRVG | inactive |
| NWNECPCNR | 8.88 |
| VLPPHVFLY | 4.95 |
| AKSRRSSRR | inactive |
| YTYLNKYNS | 2.8 |
| RRVAVYRLE | inactive |
| RGPFSACKS | inactive |
| KSMACTAGR | 0.92 |
| PFDGEVGRF | inactive |
| CDERNYSVV | inactive |
| QSTAQFVSQ | 0.645 |
| IQQARPCVL | inactive |
| MGHASPSPS | inactive |
| ASCVAVAAT | -0.517 |
| VQNAVMTVQ | inactive |
| TVSPGGMDK | -0.195 |
| RFQGMEKVA | inactive |
| FQAWVRGRN | 5.53 |
| RPVVFCSHT | inactive |

| Variant | amyloid nucleation score |
| --- | --- |
| ITELRYSHC | inactive |
| WYGDYDKKR | inactive |
| RYRGNCYVG | inactive |
| LILWSGRGH | inactive |
| GYEYRNEGS | inactive |
| CRLTSRCIN | inactive |
| GTYRRMAYK | -0.0664 |
| VQGSIPLEG | inactive |
| FGFGLMFET | 5.44 |
| NWHRERPWR | 4.32 |
| LFWFGGRMA | 3.89 |
| VLGLGRLER | 5.59 |
| VTVRNFMGD | inactive |
| VFRFRSTFY | -0.129 |
| LFERNTSER | 4.58 |
| QFKRSVCTN | 0.661 |
| LEPARVQFR | inactive |
| TSVSPQMQM | 1.75 |
| RVKNGCMSS | inactive |
| PEVVGHWGE | -0.481 |
| PGLNLVSSR | inactive |
| RWQSGIGFC | inactive |

Same assay, conditions: random library (experiment): 2

| Variant | amyloid nucleation score |
| --- | --- |
| WCFAHGLYR | 4.02 |
| FSVSLCLFN | 7.96 |
| IELSNICRV | 4.22 |
| LVRSGYLMR | inactive |
| FAVNYISGF | 7.6 |
| TGRDEDSVE | inactive |
| VWFRTWNYH | inactive |
| DYYGRFETS | inactive |
| RCNWRTVYI | -0.678 |
| MGSRTRADW | 2.48 |
| QDQFSIYCR | 1.61 |
| VTCSEGNGF | 6.7 |
| FSLSNWDIP | 5.98 |
| TLETCVTSM | inactive |
| WVSYFLVLG | inactive |
| FQLVLIIIF | -0.0488 |
| WLSISLLFP | inactive |
| VCILQFRSS | 0.528 |
| CVSQGSTFG | 8.4 |
| CLRNIRGNW | 1.32 |
| INLCYCRTG | 4.53 |
| PRFLAIIVI | inactive |
| WDVINRTLR | 3.94 |
| AYDIICKTC | inactive |
| TVYCRFHST | 2.35 |

| Variant | amyloid nucleation score |
| --- | --- |
| HRSYPSYSD | inactive |
| TVRMVCLLV | inactive |
| KLDYIYLVT | inactive |
| MQPMRGRCC | inactive |
| NMPGIFLSY | 5.21 |
| KRHCFTAWA | inactive |
| PQSLICQQS | inactive |
| NILSGQTKC | inactive |
| IVGFSRKIV | inactive |
| EINSDICFS | inactive |
| MTDFYGPMV | inactive |
| RNHECFCGE | inactive |
| NVYVSTMFL | 8.49 |
| VVTVGNISK | 5.47 |
| NSKGALVFL | 5.15 |
| WYSCLGANR | 4.04 |
| VDRFWFQFE | 2.6 |
| REKNCVLAS | inactive |
| CKTCSRAND | 4.19 |
| LAWFTGVKS | inactive |
| FAEYVDRPT | inactive |
| VRTISFITL | 2.09 |
| YRGIEHGSH | 3.73 |
| YGSHGSVWH | 7.65 |
| PFISMYRGV | 5.38 |

| Variant | amyloid nucleation score |
| --- | --- |
| VSCAGCSTC | 8.4 |
| YQHFSCKCL | 4.5 |
| YVKPNGVIW | 1.32 |
| YWKSCIMTA | inactive |
| YCVSIRIGV | inactive |
| HRDSAKYDV | inactive |
| RYDSGTKKE | -0.0392 |
| RVDVVYRIR | inactive |
| IGMSPSPFR | 1.82 |
| YTDCCCDNG | 7.75 |
| VDVWSDIIW | 4.72 |
| IFVTFGIAI | 2.84 |
| KIYILLGAV | inactive |
| THVRDLEER | inactive |
| GISVMFCRA | 7.15 |
| FSMHVCVKL | inactive |
| LLSFCRMEC | inactive |
| GRVSGGVGM | inactive |
| DDSRNRLCT | inactive |
| VSDWSNCGD | 5.08 |
| RLEAREALP | inactive |
| QFLDSFLIQ | inactive |
| IRFYVCGAL | 4.05 |
| KVSINISVV | 6.04 |
| CILVIDRPF | 4.76 |

| Variant | amyloid nucleation score |
| --- | --- |
| VNVRYKYLA | inactive |
| ICTRLNQLG | 3.37 |
| DTFNYNKSC | 6.44 |
| IVILWVVAR | 5.7 |
| LCEGMLTNV | inactive |
| LMMYHIVRG | 0.968 |
| MTRRSYYGV | 2.26 |
| FVKVFSIFL | inactive |
| YMIRFIFLR | inactive |
| CKYSNIVLT | inactive |
| WMWFLCPEM | 4.2 |
| ESRKARSRL | 1.59 |
| LKTLNTLFD | 1.95 |
| YMCFDTVFC | 8.22 |
| RMKPFLTVG | inactive |
| HTMLIFNVN | inactive |
| TMNRKGRVV | inactive |
| CDRASSPGM | 2.61 |
| GYMVSSTRC | inactive |
| DGIMFTSMV | 0.357 |
| YYKSLMKGQ | inactive |
| CREVNCIRA | inactive |

Variants of: B2
Test: as above
Conditions: random library (experiment): 3
Experimental: as §1

| Variant | amyloid nucleation score |
| --- | --- |
| LYCNTVRK | 5.06 |
| WWAVTTSA | inactive |
| TWVITSFP | inactive |
| AWYLISGN | -0.558 |
| GWRTMRGG | inactive |
| IYVRRWPI | inactive |
| LWVTTNGI | inactive |
| WWFAYRRR | inactive |
| AVVGRWNL | 2.06 |
| NVTVELRM | 8.65 |
